Experimental data reported in PubChem BioAssay AID2676 (National Center for Advancing Translational Sciences (NCATS), 2010).
Screen size: about 370,000 compounds; about 1,100 (0.3%) were called active. Inconclusive results, whose numbers are uncertain, are shown with a selection of clear calls. Calls come from the whole dose curve; as a rule, active = well fitted activation curve with a large enough effect; inconclusive = small, poorly fitted or top-dose-only effect; inactive = flat fitted curve, though single readings scatter. A potency beside an inconclusive call is a rough fit, not a confirmed value.
Note: nearly all actives have a fitted effect of over 60% in size.
Potency is the fitted concentration of half-maximal effect; tags give direction and shape of the fitted curve.

The compounds below were run against Relaxin receptor 1 (Homo sapiens) (UniProt Q9HBX9) (assay: qHTS Assay for Agonists of the Relaxin Receptor RXFP1). Conditions: HEK293T-RXFP1 cAMP TR-FRET, 30 min; series mostly up to 57.5 µM.
Sequence of UniProt Q9HBX9 (Q9HBX9 whole entry, looked up): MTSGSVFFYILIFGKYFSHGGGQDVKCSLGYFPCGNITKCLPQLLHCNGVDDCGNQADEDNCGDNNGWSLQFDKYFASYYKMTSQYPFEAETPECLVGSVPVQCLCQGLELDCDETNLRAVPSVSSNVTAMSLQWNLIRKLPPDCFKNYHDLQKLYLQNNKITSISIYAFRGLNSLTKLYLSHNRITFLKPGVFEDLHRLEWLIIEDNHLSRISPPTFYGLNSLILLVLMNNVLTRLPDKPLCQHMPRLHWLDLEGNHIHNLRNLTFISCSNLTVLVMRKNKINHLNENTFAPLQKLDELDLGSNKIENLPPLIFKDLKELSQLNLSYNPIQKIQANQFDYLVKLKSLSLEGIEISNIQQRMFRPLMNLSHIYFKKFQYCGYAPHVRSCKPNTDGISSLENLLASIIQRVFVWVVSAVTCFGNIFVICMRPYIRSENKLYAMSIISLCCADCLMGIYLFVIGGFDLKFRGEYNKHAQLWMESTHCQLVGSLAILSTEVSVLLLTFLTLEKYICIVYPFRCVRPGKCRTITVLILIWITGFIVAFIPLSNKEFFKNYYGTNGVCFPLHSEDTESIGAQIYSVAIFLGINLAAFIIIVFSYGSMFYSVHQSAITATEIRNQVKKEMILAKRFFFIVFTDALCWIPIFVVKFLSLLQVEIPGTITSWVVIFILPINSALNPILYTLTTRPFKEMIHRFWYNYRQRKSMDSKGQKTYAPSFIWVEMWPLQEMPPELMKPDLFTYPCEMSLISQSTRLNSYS
Outline: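 HEK293 cells stably expressing RXFP1, treated 30 min at 37C with compounds plus PDE4 inhibitor Ro 20174; cAMP measured by HTRF TR-FRET. Normalized to buffer and 29 nM porcine relaxin; EC50 by Hill fit.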
In the case of `CCN(CC)S(=O)(=O)c1ccc2c(c1)c(=O)c(C(=O)N1CCN(c3cc(Cl)ccc3C)CC1)cn2C`, the Potency is reported as inconclusive: 31.6 µM [activator, single point]. For `CC(=O)c1cccc(N(C(=O)c2csnn2)C(C(=O)NC2CCCC2)c2ccccc2)c1` (configuration not stated), the Potency was “inactive”. `COCc1cc(C)nc2sc(C(=O)Nc3ccccc3Br)c(N)c12` was tested, and the Potency was inconclusive: 28.2 µM [activator, single point]. In the case of `CC(=O)Nc1ccc(C(=O)CSc2nnnn2C2CCCC2)cc1`, the Potency is reported as “inactive”. For `CN(C)/C=N/c1nc2nccc(-c3cccs3)n2n1`, the Potency was inconclusive: 25.1 µM [activator, partial curve]. `COc1ccc(-c2cc3ccc(O)c(CN4CCN(C)CC4)c3oc2=O)cc1OC` was tested, and the Potency was inconclusive: 35.5 µM [activator, single point]. `CC(C)N1CCc2c(sc(NC(=O)c3ccc4ccccc4c3)c2C(N)=O)C1` was tested, and the Potency was “inactive”. In the case of `O=C(Nc1ccccc1)c1cc2c(=O)c3ccccc3oc2nc1C(F)(F)F`, the Potency is reported as inconclusive: 31.6 µM [activator, single point]. In the case of `COC(=O)c1ccc(NC(=O)c2ccc3nc(C)sc3c2)cc1`, the Potency is reported as inconclusive: 39.8 µM [activator, single point]. With `CCc1c(C)c2cc3c(c(C)c2oc1=O)OCN(CCc1ccc(OC)c(OC)c1)C3` the Potency was “inactive”. With `CC1CCN(c2ccc3nnc(CCC(=O)NCCCOC(C)C)n3n2)CC1` the Potency was inconclusive: 20 µM [activator, partial curve]. `Nc1ncnc2c1ncn2[C@@H]1O[C@H](COP(=O)(O)O)[C@@H](O)[C@H]1O` was tested, and the Potency was inconclusive: 22.4 µM [activator, single point]. In the case of `COc1ccc2cc(C#N)c(N3CCOCC3)nc2c1`, the Potency is reported as inconclusive: 28.2 µM [activator, single point]. For `CC(=O)c1ccc(NC(=O)CSc2nc(-c3ccccc3C)nc3c2c(=O)n(C)c(=O)n3C)cc1`, the Potency was inconclusive: 39.8 µM [activator, single point]. `Cc1ccc2c(n1)sc1c(-c3ccccc3)c(C#N)c(N)nc12` was tested, and the Potency was “inactive”. `COc1cc(C2C=C(C34CC5CC(CC(C5)C3)C4)NC(=S)N2)cc(OC)c1OC` (configuration not stated) was tested, and the Potency was “inactive”. In the case of `CCOC(=O)c1c(C)oc2c1cc(NS(=O)(=O)c1ccc(C)cc1)c1ccccc12`, the Potency is reported as inconclusive: 39.8 µM [activator, single point]. `Cc1cc(F)ccc1NC(=O)c1sc2nc(-c3cccs3)ccc2c1N` was tested, and the Potency was inconclusive: 22.4 µM [activator, partial curve]. With `CCOCCCNC(=O)CCc1nnc2ccc(N3CCN(c4cccc(OC)c4)CC3)nn12` the Potency was inconclusive: 15.8 µM [activator, partial curve]. `Cc1ccc(NC(=O)c2cc3c(=O)[nH]c4ccccc4c3n2C)cc1F` was tested, and the Potency was inconclusive: 35.5 µM [activator, single point]. In the case of `CCN(CC)C(=O)CSC1=C(C#N)C(c2cccs2)C=C(C)N1` (configuration not stated), the Potency is reported as inconclusive: 28.2 µM [activator, single point]. `CCOC(=O)Cn1cnc2c(sc3nc(C)cc(C)c32)c1=O` was tested, and the Potency was inconclusive: 39.8 µM [activator, single point]. For `CCOC(=O)N1CCN(C(=O)c2cc3c(=O)n4ccccc4nc3s2)CC1`, the Potency was inconclusive: 14.1 µM [activator, partial curve]. In the case of `CCC1CCCCN1CCCNC(=O)CCCNC(=O)Cn1cnc2sc3c(c2c1=O)CCCC3` (configuration not stated), the Potency is reported as inconclusive: 20 µM [activator, partial curve]. In the case of `Cc1ccc(-c2cc3ncc(C#N)c(N)n3n2)cc1`, the Potency is reported as inconclusive: 39.8 µM [activator, single point]. In the case of `COc1ccc(OCC(=O)NC(=S)Nc2ccc3c4c(cccc24)CC3)cc1`, the Potency is reported as active: 20 µM. With `COc1ccc(Cn2c(SCc3ccc(C(=O)NCc4ccccc4F)cc3)nc3cccnc32)cc1` the Potency was inconclusive: 31.6 µM [activator, single point]. In the case of `Cc1csc2c(=O)sc(NC(=O)c3cccs3)nc12`, the Potency is reported as inconclusive: 39.8 µM [activator, single point]. With `S=C1NC2(CCCCC2)Nc2ccccc21` the Potency was inconclusive: 31.6 µM [activator, partial curve]. For `NS(=O)(=O)c1ccc(CCNc2nc3c(-c4cccc(F)c4)nnn3c3ccc(Cl)cc23)cc1`, the Potency was inconclusive: 31.6 µM [activator, single point]. For `COc1ccc(Nc2c([N+](=O)[O-])ccc3c2=NC2(CCCCC2)N=3)cc1`, the Potency was “inactive”. In the case of `CC(=O)C1=C(C)NC(SCC(=O)c2ccc(Cl)cc2)=C(C#N)C1CC(C)C` (configuration not stated), the Potency is reported as inconclusive: 15.8 µM [activator, partial curve]. With `NC1=NC(c2ccc(Cl)cc2)C(C(=O)c2ccccc2)N1` (configuration not stated) the Potency was “inactive”. With `CCOc1ccc(CNC(=O)Cn2ncc3c(=O)oc4ccc(C)cc4c32)cc1` the Potency was inconclusive: 31.6 µM [activator, single point]. In the case of `CC1(c2ccccc2)O[C@@H]2C[C@H]3[C@@H]4CCC5=CC(=O)C=C[C@]5(C)[C@@]4(F)[C@@H](O)C[C@]3(C)[C@]2(C(=O)CO)O1` (some centres not stated), the Potency is reported as “inactive”. `COc1ccccc1NC(=O)Cc1csc(NC(=S)Nc2ccc(C)cc2)n1` was tested, and the Potency was “inactive”. With `NS(=O)(=O)c1ccc(CCn2c(=S)[nH]c3ccc(F)cc3c2=O)cc1` the Potency was inconclusive: 35.5 µM [activator, single point]. In the case of `Cc1ccc(C(=O)Nc2sc3c(c2C(=O)O)CCCCC3)o1`, the Potency is reported as “inactive”. With `COC(=O)c1ccccc1NC(=O)c1cn2c3c(ccc(Cl)c3c1=O)OC(C)C2` (configuration not stated) the Potency was inconclusive: 35.5 µM [activator, single point]. For `O=C1c2cccnc2C(=O)N1Cc1ccc(S(=O)(=O)NCc2ccco2)s1`, the Potency was inconclusive: 15.8 µM [activator, partial curve]. In the case of `COc1ccc2c(c1OC)c(=O)n1c3ccc(OC(C)C(=O)NCCCN4CCOCC4)cc3c3ccnc2c31` (configuration not stated), the Potency is reported as inconclusive: 17.8 µM [activator, partial curve]. In the case of `CCCCCC(=O)NC(=S)Nc1cccc(-c2nc3ncccc3o2)c1`, the Potency is reported as inconclusive: 39.8 µM [activator, single point].
